The record followed here is the antibiotic and cytotoxicity screens of Wong et al. (2023).

The list shows a part of the results.

Assay [1] relates to HSkMC (human skeletal muscle cells). Kind of assay: cytotoxicity call (relative viability < 0.9). Particulars: 10 µM.
Assay [2] relates to HepG2. Kind of assay: cytotoxicity call (relative viability < 0.9). Particulars: 10 µM.
Assay [3] deals with S. aureus RN4220. Briefly: growth inhibition call (relative growth <= 0.2). Particulars: 50 µM.

`CN([C@@H](Cc1ccc(OS(=O)(=O)c2cccc3cnccc23)cc1)C(=O)N1CCN(c2ccccc2)CC1)S(=O)(=O)c1cccc2cnccc12`: the cytotoxicity call in assay [1] and in assay [2] was “inactive” throughout. Besides, in assay [3], the growth inhibition call is “inactive”.
As to `C[C@H]1CN([C@@H](C)CO)C(=O)c2cc(NC(=O)Cc3ccccc3)ccc2O[C@H]1CN(C)S(=O)(=O)c1ccccc1`, the cytotoxicity call in assay [1] and in assay [2] was “inactive” throughout. The growth inhibition call in assay [3] was “inactive”.
As for `CCCCNC(=O)N1CCN(C)CC1`, the cytotoxicity call in assay [1] and in assay [2] was “inactive” each time. Also, the growth inhibition call in assay [3] is “inactive”.
Turning to `COCC(=O)N(C)C[C@@H]1Oc2cc(C#Cc3ccccc3)ccc2S(=O)(=O)N([C@H](C)CO)C[C@H]1C`, the cytotoxicity call in assay [1] and in assay [2] was “inactive” throughout. In addition, the growth inhibition call in assay [3] was “inactive”.
As to `COCC(=O)N(C)C[C@H]1Oc2cc(C#C[C@@H](C)O)ccc2S(=O)(=O)N([C@@H](C)CO)C[C@@H]1C`, the cytotoxicity call in assay [1] and in assay [2] was “inactive” throughout. The growth inhibition call in assay [3] was “inactive”.
As for `Cc1cccc2c3c(ccc12)C1=C(C(=O)C3=O)C(C)CO1` (stereo not given), the cytotoxicity call in assay [1] was “inactive”. For the same compound, the cytotoxicity call in assay [2] is “active”. Also, the growth inhibition call in assay [3] is “active”.
Consider `N=c1cc(N2CCCCC2)nc(N)n1OS(=O)(=O)O`, for which the cytotoxicity call in assay [1] and in assay [2] was “inactive” in each case. Besides, the growth inhibition call in assay [3] is “inactive”.
Take `C[C@H](CO)N1C[C@H](C)[C@@H](CN(C)S(=O)(=O)c2cccs2)Oc2c(NS(=O)(=O)c3cn(C)cn3)cccc2C1=O`: the cytotoxicity call in assay [1] and in assay [2] was “inactive” throughout. The growth inhibition call in assay [3] is “inactive”.
With `CC(C)=CCCC1(C)C=Cc2c(O)c3c(c(CC=C(C)C)c2O1)OC12C(=CCCC1C(C)(C)OC2(CC=C(C)C(=O)O)C(=O)O)C3=O` (stereo not given), the cytotoxicity call in assay [1] and in assay [2] was “inactive” each time. Also, the growth inhibition call in assay [3] is “active”.
Regarding `NC(=O)NCC#Cc1ccc2c(c1)[C@]1(C(=O)N2)[C@H](c2ccc(O)cc2)N2[C@H](c3ccccc3)[C@H](c3ccccc3)OC(=O)[C@H]2[C@@H]1C(N)=O`, the cytotoxicity call in assay [1] and in assay [2] was “inactive” throughout. Further, the growth inhibition call in assay [3] is “inactive”.
